Measurements as given in PubChem BioAssay AID1345082 (National Center for Advancing Translational Sciences (NCATS), 2018).
The whole screen tested about 94,000 compounds, of which about 4,000 (4.3%) were called active. The shares of active, inactive and inconclusive entries below differ from those in the screen. The call rests on the fitted dose curve; in most records, active means well fitted inhibition curve with a large enough effect; inconclusive means small, poorly fitted or top-dose-only effect; inactive means no such curve, though single readings can be large or run the other way. Potencies of inconclusive entries are doubtful fits and often do not repeat.
On the % scale 0 is the no-effect control and ±100 the full control effect; potency means the concentration at half of the fitted maximal effect; tags describe the fitted curve by direction and shape.

Assay: Cytotoxic Profiling in NIH 3T3 Cell Line of Diverse Libraries Using Quantitative High-Throughput Screening; further: nearly all actives have a fitted effect of over 55% in size
Details: NIH 3T3 viability, CellTiter-Glo ATP luminescence, 48-72 h; activity change, negative = cytotoxicity: at 96.7 µM (top of the series) unless noted; series mostly up to 96.7 µM
How it was run: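 First NIH 3T3 cells are plated at 400 cells/well; next compound is pinned in; then plates incubate 48 or 72 hr at 37 °C; finally CellTiter-Glo is added and luminescence read after 10 min.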
For `COc1ccccc1-c1cccc(CN2CCC(N[S+](=O)([O-])c3ccc(C)cc3)CC2)c1`, the Potency was inconclusive: 44.7 µM [inhibitor, partial curve, poor fit].
With `O=C(c1cc(-c2cccc(C(F)(F)F)c2)c2nncn2n1)N1CCN(Cc2ccccc2)CC1` the “activity change, negative = cytotoxicity” value was inactive: -11.3%.
With `COc1ccccc1-c1cc2c(ccn2C)c(C(=O)NCc2c(C)cc(C)[nH]c2=O)n1` the Potency was inconclusive: 89.1 µM [inhibitor, partial curve].
With `O[C@@H]1C[C@@H](c2nc(-c3ccccc3)no2)N(Cc2ccc(F)cc2)C1` the Potency was inconclusive: 79.4 µM [inhibitor, partial curve].
For `Cc1n[nH]c(C)c1CNC(=O)c1ccc(N2CC3CC(C2)[C@H]2CCCC(=O)N2C3)nc1` (some centres undefined), the “outcome” value was “inactive”.
In the case of `O=C(Cc1cccc(Cl)c1)NCCNC(=O)c1ccc(-c2cncnc2)cc1`, the “activity change, negative = cytotoxicity” value is reported as inactive: -20.8%.
With `O=C1CC2(CCN(C(=O)C3CCCN(C(=O)c4ccc(F)cc4)C3)CC2)Oc2ccccc2N1` (centres undefined) the “activity change, negative = cytotoxicity” value was inactive: -13.5%.
For `Cn1cncc1C(=O)N1C[C@@H](COCC2CC2)[C@H](c2ccccn2)C1`, the “activity change, negative = cytotoxicity” value was inactive: -2.51%.
In the case of `CC(C)Cn1c(=O)c(C(=O)NCCCc2ccccc2)nc2cccnc21`, the Potency is reported as inconclusive: 70.8 µM [inhibitor, single point].
With `O=C(O)C1CCCN(Cc2ccccc2OCCCN2CCOCC2)C1` (centres undefined) the “activity change, negative = cytotoxicity” value was inactive: -3.78%.
For `Cc1ccc(NC(=O)NC2CCN(c3ccc4nnc(C5CC5)n4n3)C2)cc1F` (centres undefined), the Potency was inconclusive: 70.8 µM [inhibitor, single point].
With `C1CCC(COCCc2noc(C3CNC3)n2)C1` the Potency was active: 7.94 µM.
With `Cc1ccc(CN(C)Cc2ccc(-c3ccccc3)cc2)cc1` the Potency was inconclusive: 100 µM [inhibitor, partial curve, poor fit].
With `COc1cccc(CC(=O)NC2CCN(c3cc(-c4cccs4)[nH]n3)C2)c1` (centres undefined) the Potency was inconclusive: 50.1 µM [inhibitor, partial curve, poor fit].
For `O=C(Nc1ccc([C@@H](O)[C@H]2COCC(=O)N2Cc2ccccc2F)cc1)c1cccc(F)c1`, the Potency was inconclusive: 79.4 µM [inhibitor, partial curve, poor fit].
In the case of `Cc1[nH]cnc1CN1CCNc2cc(-c3ccccc3)ncc2C1`, the Potency is reported as inconclusive: 100 µM [inhibitor, single point].
For `COC[C@@H]1CN(Cc2cccc(C(F)(F)F)c2)C[C@H]1C(=O)NC1CC1`, the “activity change, negative = cytotoxicity” value was inactive: -19.3%.
In the case of `COc1ccc(-c2cc(C(=O)Nc3cccc(F)c3)c3cnn(C)c3n2)cc1`, the Potency is reported as inconclusive: 10 µM [inhibitor, partial curve, poor fit].
In the case of `Cc1cc(C(=O)N(CC2CCN(Cc3ccccc3C)CC2)CC2CCCO2)c(C)o1` (centres undefined), the “activity change, negative = cytotoxicity” value is reported as inactive: -15.1%.
